# Laboratory results: the antibiotic and cytotoxicity screens of Wong et al. (2023)
# The list shows a part of the results.
# What was measured:
# HSkMC = human skeletal muscle cells; assay: cytotoxicity call (relative viability < 0.9); conditions: 10 µM
# HepG2 = assay: cytotoxicity call (relative viability < 0.9); conditions: 10 µM
# S. aureus RN4220 = assay: growth inhibition call (relative growth <= 0.2); conditions: 50 µM
SMILES,cytotoxicity call (HSkMC),cytotoxicity call (HepG2),growth inhibition call (S. aureus RN4220)
C[C@H]1CN([C@@H](C)CO)C(=O)Cc2cc(NC(=O)Nc3ccc(C(F)(F)F)cc3)ccc2O[C@@H]1CN(C)CC1CCCCC1,active,inactive,inactive
C[C@H](CO)N1C[C@H](C)[C@@H](CN(C)S(C)(=O)=O)Oc2c(NC(=O)Nc3ccc4c(c3)OCO4)cccc2C1=O,inactive,inactive,inactive
Cc1ccnc(NC(=O)Cn2cnc3c2c(=O)n(C)c(=O)n3C)n1,inactive,inactive,inactive
COc1cc(OC)c2c(c1Cl)OC1(C2=O)C(O)=CC(=O)CC1C (stereo unspecified),inactive,inactive,inactive
O=C(CCCCC(=O)N/N=C/[C@H](O)[C@H](O)[C@@H](O)[C@@H](O)CO)NO,inactive,inactive,inactive
C[C@H](CO)N1C[C@H](C)[C@@H](CN(C)Cc2ccc(C(=O)Nc3ccccc3N)cc2)Oc2c(NC(=O)Nc3ccc(F)cc3)cccc2C1=O,inactive,inactive,inactive
CC(=O)Nc1ncc([N+](=O)[O-])s1,inactive,inactive,inactive
OC[C@H]1O[C@@H](S[C@@H]2O[C@H](CO)[C@H](O)[C@H](n3cc(-c4cccc(F)c4)nn3)[C@H]2O)[C@H](O)[C@@H](n2cc(-c3cccc(F)c3)nn2)[C@H]1O,inactive,inactive,inactive
C[C@H]1CN([C@@H](C)CO)C(=O)c2cc(NC(=O)Cn3cnnn3)ccc2O[C@@H]1CN(C)Cc1ccccc1,inactive,inactive,inactive
C[C@H](CO)N1C[C@H](C)[C@@H](CN(C)S(=O)(=O)c2cccs2)Oc2c(NS(=O)(=O)c3cccs3)cccc2C1=O,inactive,inactive,inactive
C[C@H]1CN([C@@H](C)CO)C(=O)Cc2cc(N(C)C)ccc2O[C@H]1CN(C)S(=O)(=O)c1ccc(F)cc1,inactive,inactive,inactive
O=C(C[C@@H]1CC[C@@H]2[C@H](COC[C@@H](O)CN2S(=O)(=O)c2ccc(F)cc2)O1)N[C@H]1CCN(Cc2ccccc2)C1,inactive,inactive,inactive
Cc1cc(O)c(C(=O)/C=C/N(C)C)c(=O)o1,inactive,inactive,inactive
C[C@@H]1CCCCO[C@@H](CN(C)Cc2ccncc2)[C@@H](C)CN([C@H](C)CO)C(=O)c2cc(NC(=O)c3ccccc3)ccc2O1,inactive,inactive,inactive
NCCCN.O=C(O)C(O)C(O)C(=O)O (stereo unspecified),inactive,inactive,inactive
C[C@@H]1CN([C@H](C)CO)C(=O)c2cccc(NC(=O)C3CCCCC3)c2O[C@@H]1CN(C)Cc1ccc(Cl)c(Cl)c1,inactive,inactive,inactive
C[C@@H]1CCCCO[C@H](CN(C)C(=O)Nc2ccc(C(F)(F)F)cc2)[C@@H](C)CN([C@@H](C)CO)C(=O)c2cc(NC(=O)Nc3cccc4ccccc34)ccc2O1,inactive,inactive,inactive
C[C@H](CO)N1C[C@H](C)[C@@H](CN(C)S(=O)(=O)c2cn(C)cn2)Oc2cc(C#Cc3ccc(F)cc3)ccc2S1(=O)=O,inactive,inactive,inactive
C[C@H]1CN([C@@H](C)CO)C(=O)c2cc(NC(=O)CCCCCC(=O)Nc3ccccc3N)ccc2O[C@@H]1CN(C)S(C)(=O)=O,inactive,inactive,inactive
C[C@H](CO)N1C[C@H](C)[C@@H](CN(C)C(=O)Nc2ccc(C(F)(F)F)cc2)Oc2c(NS(=O)(=O)c3ccc(Cl)cc3)cccc2C1=O,inactive,inactive,inactive
O=C(Cc1ccncc1)NCC[C@@H]1CC[C@H](NC(=O)C2CCOCC2)[C@H](CO)O1,inactive,inactive,inactive
Cc1ccc(S(=O)(=O)N(C)C[C@@H]2Oc3ccc(NC(=O)Nc4cccc5ccccc45)cc3CC(=O)N([C@@H](C)CO)C[C@@H]2C)cc1,inactive,inactive,inactive
C[C@@H]1CCCCO[C@@H](CN(C)C(=O)C2CCCCC2)[C@H](C)CN([C@H](C)CO)C(=O)c2cc(NS(=O)(=O)c3ccc(Cl)cc3)ccc2O1,inactive,inactive,inactive
C[C@H](CO)N1C[C@H](C)[C@@H](CN(C)Cc2cccc3c2OCCCO3)OCc2ccccc2-c2ccccc2C1=O,inactive,inactive,inactive
COCC(=O)N[C@H]1C=C[C@@H](CC(=O)N2CCCCC2)O[C@@H]1CO,inactive,inactive,inactive
N[C@H](c1ccc(Cl)cc1)c1cccnc1,inactive,inactive,inactive
C[C@H]1CN([C@@H](C)CO)C(=O)Cc2cc(NC(=O)CCCCCC(=O)Nc3ccccc3N)ccc2O[C@H]1CN(C)CC1CCCCC1,inactive,inactive,inactive
